This is one part of the list. The main result of the screen is listed elsewhere. These columns were measured beside it and carry no call.
Experiments:
Test in all cases: Primary Screen for Target Class Profiling of Small Molecule Inhibitors of Methyltransferases
[1] = biological target: Glycine N-methyltransferase (Homo sapiens) (UniProt Q14749); settings: purified enzyme, MTase-Glo SAH luminescence; measured here: GNMT inhibition; at 40 µM; stronger effect = lower value
In short: (§1)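 Each enzyme was reacted with SAM and its substrate, with compounds tested once at 40 uM; SAH formed was read by MTase-Glo luminescence.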

[2] = biological target: Guanidinoacetate N-methyltransferase (Homo sapiens) (UniProt Q14353); settings: purified enzyme, MTase-Glo SAH luminescence; measured here: GAMT inhibition; at 40 µM; stronger effect = lower value
In short: as §1

[3] = biological target: Histamine N-methyltransferase (Homo sapiens) (UniProt P50135); settings: purified enzyme, MTase-Glo SAH luminescence; measured here: HNMT inhibition; at 40 µM; stronger effect = lower value
In short: as §1

[4] = biological target: Nicotinamide N-methyltransferase (Homo sapiens) (UniProt P40261); settings: purified enzyme, MTase-Glo SAH luminescence; measured here: NNMT inhibition; at 40 µM; stronger effect = lower value
In short: as §1

[5] = biological target: Phenylethanolamine N-methyltransferase (Homo sapiens) (UniProt P11086); settings: purified enzyme, MTase-Glo SAH luminescence; measured here: PNMT inhibition; at 40 µM; stronger effect = lower value
In short: as §1
% is scaled to controls: 0 for no effect and ±100 for the full control effect.

Structure (SMILES) | activity change, negative = inhibition [1] [%] | activity change, negative = inhibition [2] [%] | activity change, negative = inhibition [3] [%] | activity change, negative = inhibition [4] [%] | activity change, negative = inhibition [5] [%]
CS(=O)(=O)N1C[C@@H](COc2ccccc2)[C@H](C(N)=O)C1 | -2.03 | 1.13 | 1.63 | 0.351 | -0.734
COc1ccc(-n2c(CCN)n[nH]c2=O)c(C)c1 | -6.63 | -9.2 | -3.15 | -12.6 | -6.89
c1ccc2c(Nc3nnc(-c4ccncc4)s3)cccc2c1 | -27.7 | -14.3 | -1.74 | -28.1 | -11.6
O=C(c1ccc2c(=O)nc3c(-c4ccc(F)cc4)n[nH]n3c2c1)N1CCN(c2ccccn2)CC1 | -6.1 | 0.881 | -6.12 | -3.25 | -3.89
CC(=O)Nc1cccc(C(=O)N2CCC3(CC2)N=C(c2ccc(C)cc2)NO3)c1 | -3.11 | 1.41 | -2.81 | -2.48 | -5.44
CCCN(CCN1CCN(c2ccccc2OC)CC1)C1CCc2ncsc2C1 (stereo not drawn) | -1.57 | 0.535 | 2.59 | -16.6 | 2.29
COc1cc(O)c2c(c1Cl)CC(C)OC2=O (stereo not drawn) | -22.2 | -4.66 | 5.71 | -15.3 | -9.8
O=C(c1ccc(C(F)(F)F)cc1)N1CCCC(C(=O)N2CCC(c3nc4ccncc4[nH]3)CC2)C1 (stereo not drawn) | -7.47 | -12.6 | -14 | -53.8 | -12.4
COCCCNC(=O)Cn1ccc2cc(S(=O)(=O)N3CCCCC3)ccc21 | 1.85 | 0.867 | -0.283 | -1.12 | -2.62
COc1ccc(CN2C(=O)c3ccc(-c4ccccc4)n3CC2(C)C(=O)NC2CCCC2)cc1 (stereo not drawn) | -7.26 | -3.22 | -5.11 | -9.38 | -2.25
CCOC(=O)CC(NC(=O)N1CCn2c(C)ccc2C1CC)c1ccccc1 (stereo not drawn) | -1.56 | 2.58 | 1.47 | -5.85 | -3.69
CSCCC(NC(=O)c1ccccc1NC(=O)c1ccc(C)cc1)C(=O)O (stereo not drawn) | -3.9 | 3.86 | -4.11 | 4.51 | -3.36
O=C(c1ccccc1F)N1CCC(Cc2nc(-c3cnccn3)no2)CC1 | -4.91 | -2.61 | 0.283 | -16.8 | -2.11
CN(Cc1cnc2nc(N)nc(N)c2n1)c1ccc(C(=O)N[C@@H](CCC(=O)O)C(=O)O)cc1 | -4.96 | 13.9 | 9.7 | -2.35 | 0.784
COc1cc(F)ccc1-c1nc(-c2c(C)noc2C)cc2cc(C)oc12 | -7.86 | -8.03 | -6.86 | -33.2 | 1.64
CCCN1C(=O)c2c(C(=O)NCc3ccc(F)cc3)ncn2CC1(C)C(=O)NCc1ccc(C)cc1 (stereo not drawn) | 3.36 | 0.448 | 11 | 2.1 | 11.5
Nc1nc(-n2cc(C(=O)O)c(=O)c3cc(F)c(N4CC(O)C4)c(Cl)c32)c(F)cc1F | 3.43 | 8.84 | 5.24 | -8.94 | 1.48
CC(=O)NC(C(=O)OC1CCC(C)(C)C2CC=C3C(=O)OCC3C12C)C(C)C (stereo not drawn) | 1.13 | 2.92 | -1.47 | -6.6 | -0.433
CN1C(=O)c2cc(C(=O)NCc3ccc4c(c3)OCO4)nn2CC1(C)C(=O)NCc1ccc(F)cc1 (stereo not drawn) | 0.457 | 3.61 | -1.18 | -0.586 | -0.466
COC(=O)C[C@H]1CN(C(=O)OC(C)(C)C)CCN1 | -5.8 | -10.5 | -4.83 | -17.5 | -5.42
COC(=O)c1ncn2c1C(=O)N(c1ccc(F)cc1)C(C)(C(=O)NC1CCCC1)C2 (stereo not drawn) | 1.62 | 0 | -1.65 | 0.848 | -0.341

Structure (SMILES) | activity change, negative = inhibition [1] [%] | activity change, negative = inhibition [2] [%] | activity change, negative = inhibition [3] [%] | activity change, negative = inhibition [4] [%] | activity change, negative = inhibition [5] [%]
CC1CCC(NC(=O)C2(C)Cn3c(cc4occc43)C(=O)N2Cc2ccc(Cl)cc2)CC1 (stereo not drawn) | -2.29 | 17.1 | 4.13 | -10.4 | -6.2
Cc1cnc(C2CC2)n1C1CCCN(Cc2ccccc2)C1 (stereo not drawn) | -0.142 | 0.149 | -67.1 | -5.5 | -20.4
CN(CC(=O)NCc1ccc(Cl)cc1)S(=O)(=O)c1ccc2[nH]c3c(c2c1)CCCC3 | -6.7 | 0 | -4.81 | -3.95 | -3.25
CC(C)Cn1c(=O)c2ccc(C(=O)NC3CCCCC3)cc2n2c(=O)[nH]nc12 | 2.03 | 1.77 | 9.46 | -0.782 | -4.74
CC(C)NC(=O)c1ccc2c(=O)n(C3CC3)c3nn(CC(=O)Nc4ccccc4Cl)c(=O)n3c2c1 | 1.82 | 3.12 | 3.46 | 1.78 | 2.97
CC(C)Cc1cc(C(=O)NCC2CCN(c3cnn(C)c(=O)c3)C2)no1 (stereo not drawn) | -5.15 | -7.95 | -3.6 | -17.5 | -10.7
CCCCN(CC)CCN1C(=O)c2ccc(-c3ccco3)n2CC1(C)C(=O)NC1CCCCC1 (stereo not drawn) | 7.23 | 0 | 8.09 | 9.81 | 4.41
c1ccc(OCCCn2cc(-c3cncnc3)nn2)cc1 | -6.2 | -6.91 | -4.58 | -9.49 | -10.7
COc1ccc(S(=O)(=O)N2CCC(n3cnnc3C)CC2)cc1OC | 1.88 | 0 | 11.6 | 8.6 | 6.32
CCCn1cnc2c(NCc3ccc(C)s3)nc(N[C@H](CC)CO)nc21 |  | 10.2 |  | -14.2 | 3.16
CCc1cc2c(cc3n2CC(C)(C(=O)NC2CCCCC2)N(Cc2cccs2)C3=O)s1 (stereo not drawn) | -1.44 | 0 | 2.19 | 0.62 | -1.65
CCC(CC)C(=O)N1CC[C@@H]2COCCN(Cc3cccnc3)[C@@H]2C1 | -5.14 | -6.58 | -2.31 | -7.61 | -7.86
COc1cccc(C(=O)Cn2nc3n(CCc4ccccc4)c(=O)c4ccccc4n3c2=O)c1 | 1.15 | 4.71 | 1.98 | -1.13 | 1
CC(C)C[C@H](C(=O)O)c1cc(-c2ccc(C(F)(F)F)cc2)cc(-c2ccc(C(F)(F)F)cc2)c1 | -14.3 | -50.2 | -4.64 | -77.2 | -11.3
CC(C)c1cc(C(=O)N[C@@H]2COCC[C@@H]2OCc2cscn2)cs1 | -2.98 | -1.75 | -1.26 | -3.57 | -0.021
Cc1ccc(CN2C(=O)CSc3c(c4ccccc4n3C)C2C(=O)NCCCOC(C)C)cc1 (stereo not drawn) | 5.61 | 1.79 | 8.83 | -2.87 | 4.37
COCCCNc1nc2c(S(=O)(=O)c3ccccc3)nnn2c2ccc(Cl)cc12 | -2.48 | 2.38 | 8.05 | 8.4 | 1.54
O=C1CO[C@H]2CN(Cc3ccc(C(F)(F)F)cc3)C[C@H]2N1 | -1.46 | -0.185 | 2 | -1.55 | -1.4
Cc1cc(C)cc(NC(=O)c2cc3n(n2)CC(C)(C(=O)NC2CCCCC2)N(C)C3=O)c1 (stereo not drawn) | 8.22 | 0 | 6.46 | 8.09 | 0.562
Cn1c(Cn2cccn2)nnc1C1CC(NC(=O)c2sccc2N)C1 (stereo not drawn) | -2.3 | -5.5 | -0.385 | -5.52 | -2.38
Cc1ccc(C(=O)N2CC(CN3C(=O)c4c(c(C)nn4-c4ccccc4)C3C3CC3)C2)cc1 (stereo not drawn) | -7.27 | -10.3 | -5.73 | -19.8 | -8.67

Structure (SMILES) | activity change, negative = inhibition [1] [%] | activity change, negative = inhibition [2] [%] | activity change, negative = inhibition [3] [%] | activity change, negative = inhibition [4] [%] | activity change, negative = inhibition [5] [%]
NC(=O)[C@@H]1CN(Cc2ccccn2)C[C@H]1COc1ccccc1 | 1.18 | 3.43 | 0.608 | -3.12 | 13.9
Cc1ccc(NC(=O)N2CC(n3cc(C(=O)NCc4ccncc4)nn3)C2)cc1C | -4.16 | -3.59 | -1.61 | -4.48 | -2.17
Cc1ccc(Cl)cc1NC(=O)N1CCn2cccc2C1Cc1ccccc1 (stereo not drawn) | -9.97 | 1.69 | -12.3 | -12.4 | -9.84
CC(=O)N1CCC(c2nnc3n2C(C(=O)Nc2ccc(C)cc2)CC3)CC1 (stereo not drawn) | -7.49 | -5.16 | -6.07 | -11.4 | -9.2
C=CCc1ccc(OC(C)Cc2ccc(OC)c(OC)c2)c(OC)c1 (stereo not drawn) | -8.03 | 3.24 | 8.04 | -13.8 | -10
CCc1ccc(NC(=O)CN(C)S(=O)(=O)c2ccc3[nH]c4c(c3c2)CCCC4)cc1 | -8.34 | -3.18 | -4.3 | -10.5 | -2.42
CCOC(=O)c1cc2n(n1)CC(C)(C(=O)NC1CCCCCC1)N(c1ccc(CC)cc1)C2=O (stereo not drawn) | 4.88 | 0 | -0.708 | 2.68 | 5.47
Cc1cccc(Cn2nc3n(CC(C)C)c(=O)c4ccccc4n3c2=O)c1 | 3.07 | 0.878 | 6.84 | -2.17 | 3.8
Cc1cc(C)cc(NC(=O)Cn2c(=O)oc3cc(S(=O)(=O)NCc4ccccc4)ccc32)c1 | -5.06 | 4.68 | -3.9 | 1.67 | -4.79
CCCn1c(=O)c2ccc(C(=O)NC(C)CC)cc2n2c(=O)n(CC(=O)Nc3ccc(C)c(F)c3)nc12 (stereo not drawn) | 4.42 | 2.26 | 12.1 | 0.919 | 4.22
O=C(NCCCCCNC(=O)c1cccnc1)c1cccnc1 | -6.36 | -3.99 | -4.11 | -1.27 | -6.72
NCC(=O)N1CCCC2(Cc3ccccc3CN2S(=O)(=O)c2ccccc2)C1 (stereo not drawn) | -3.55 | 0.586 | -3.27 | -12.1 | -0.726
CC(C)N(Cc1nccn1C)C(=O)c1cc(Cn2cnc3ccccc32)[nH]n1 | -2.96 | -3.8 | -2.29 | -6.03 | -2.21
COc1ccc(/C=C/C(=O)O[C@@H]2[C@@H](OC(C)=O)[C@@H](OC(C)=O)[C@H](O[C@H]3[C@@H]4C=CO[C@@H](O[C@@H]5O[C@H](CO)[C@@H](O)[C@H](O)[C@H]5O)[C@@H]4[C@@]4(CO)O[C@@H]34)O[C@H]2C)cc1O | -1.24 | 5.36 | 1.77 | -6.37 | 4.03
CCCn1c(=O)c2ccccc2n2c(SCC(=O)Nc3ccc(C)c(C)c3)nnc12 | 3.86 | 4.16 | 10.7 | 5.07 | 4.58
CNC(=O)[C@@H]1CN(C(=O)c2ccc(OC)nc2OC)C[C@H]1c1n[nH]c(C)n1 | -0.829 | -0.164 | -0.135 | -5.84 | 13.7
O=C1NCCCCCN(C(=O)Cc2cccc(F)c2)[C@H]2CCC[C@@H]12 | -1.37 | -0.447 | 0.114 | -5.08 | -1.27
CCNc1nc2c(s1)C(c1cccc(F)c1)CC(=O)N2 (stereo not drawn) | -83.1 | -71.4 | -21.4 | -47.8 | -41.9
COc1ccccc1N1CCN(CC[C@@](C)(C(=O)C2CCCCC2)c2ccccc2)CC1 | -3.29 | -9.64 | 0.459 | -28.5 | -9.43

Reference: PubChem BioAssay AID1745853 (National Center for Advancing Translational Sciences (NCATS), 2022)
